# Results: the supplement of paper PMC11369174, “Proteome-scale characterisation of motif-based interactome rewiring by disease mutations” (Molecular Systems Biology, 2024)
# Residue numbers refer to the chain shown, from its start. Numbers in names are those of the source. Some of the results follow. This is a noisy data set.
# T1: G3BP2_NTF2_1_Q9UN86_1_139
# T1 chain: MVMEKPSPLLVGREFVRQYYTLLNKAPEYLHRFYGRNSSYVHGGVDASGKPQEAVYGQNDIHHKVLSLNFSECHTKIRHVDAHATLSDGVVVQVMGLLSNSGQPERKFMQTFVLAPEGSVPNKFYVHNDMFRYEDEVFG
# T2: ZMYND11_coiled-coil-MYND__Q15326_480_602
# T2 chain: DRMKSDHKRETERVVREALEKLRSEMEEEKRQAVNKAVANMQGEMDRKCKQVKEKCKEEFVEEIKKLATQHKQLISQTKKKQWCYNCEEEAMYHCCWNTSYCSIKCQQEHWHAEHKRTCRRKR
# B1: T180I T180I (peptide)
# chain: EGTLTVEAPMPKLATQSNEIIIPVTFESRAQLGGPEAAKSD
# B2: S33F S33F (peptide)
# chain: AMEPDRKAAVSHWQQQSYLDFGIHSGATTTAPSLSGKGNPE
# B3: D299G D299G (peptide)
# chain: SPAQPATAAANNNFVNFGVGGLNAVQSPGIPQSNSGVSTLH
# B4: K15I K15I (peptide)
# chain: MFPSPALTPTPFSVKDILNLIQQQRSLAAAGELSA
# B5: N294H N294H (peptide)
# chain: YPAGPSPAQPATAAANNNFVHFGVGDLNAVQSPGIPQSNSG
# B6: S305G S305G (peptide)
# chain: TAAANNNFVNFGVGDLNAVQGPGIPQSNSGVSTLHGIRAW
# B7: T196I T196I (peptide)
# chain: SPFEDLNARRVYMQSQANQIIFGQPGLDIQSRSMEYVQRQI
# B8: R3070C R3070C (peptide)
# chain: ASSDTPMDPVTFIQTLPSDLCRSVLEDMEDSVLAVMPPDIA
# B9: L1797P L1797P (peptide)
# chain: PRAVPSNIDKMRHDVGEFPVPFFGSNDYLWTHQARVFPYME
# B10: R1582W R1582W (peptide)
# chain: VNEILRSGTCTRDESSVQSSWSERGLVEEEWVIVSDEEIEE
# B11: R485P R485P (peptide)
# chain: QGPYENRTVFETLDIGWQLLPIFPKEMLKRIPQSTLSEFYP
# B12: A76E A76E (peptide)
# chain: GEPDLKKESEEDKFPVCIREEVSQVLKGYDWTLVPMPVRVN
# B13: R137W R137W (peptide)
# chain: YRPVKVRGCFDHSKELYMMPWTMVDPVREAREGGLISSSTQ
# B14: P485L P485L (peptide)
# chain: SGFRQGGASQSDKTPEELFHLLGADSQV
# B15: I241T I241T (peptide)
# chain: ISLAFYNGLWAYDGWNQLNYTTEELRNPYRNLPLAIIIGIP
# B16: Y232C Y232C (peptide)
# chain: EGAQLSVGAISLAFYNGLWACDGWNQLNYITEELRNPYRNL
# B17: R1582Q R1582Q (peptide)
# chain: B10 chain with W21Q
# B18: E671G E671G (peptide)
# chain: GWIAILGAIWLLILADIHDFGIILHRVEWATLLFFAALFVL
# B19: E671V E671V (peptide)
# chain: B18 chain with G21V
# B20: L674I L674I (peptide)
# chain: AILGAIWLLILADIHDFEIIIHRVEWATLLFFAALFVLMEA
# Target: T1, G3BP2_NTF2_1_Q9UN86_1_139
# Test: mutation enrichment score (mutant vs wild-type peptide binding to bait); baits are purified protein domains named by gene / domain / UniProt id / residues; peptides come from disordered regions of human proteins; higher = mutation enhances binding relative to wild type
# Settings: number of wild-type / mutant comparisons summed (bounds the score): 12; paper call: no_effect; wild-type window: …
row,Binder,mutation enrichment score
1,B1,-2
2,B2,5
3,B3,-3
4,B4,0
5,B5,-3
6,B6,0.17
7,B7,-4
8,B8,3.8

# Target: T2, ZMYND11_coiled-coil-MYND__Q15326_480_602
# Test: as above
# Settings: number of wild-type / mutant comparisons summed (bounds the score): 12; paper call: no_effect; wild-type window: …
row,Binder,mutation enrichment score
1,B1,-1

# Target: T1, G3BP2_NTF2_1_Q9UN86_1_139
# Test: as above
# Settings: number of wild-type / mutant comparisons summed (bounds the score): 18; paper call: diminished; wild-type window: …
row,Binder,mutation enrichment score
1,B9,-7.9

# Target: GABARAPL1_ATG8__Q9H0R8_2_115
# Test: as above
# Settings: number of wild-type / mutant comparisons summed (bounds the score): 6; paper call: diminished; wild-type window: …
row,Binder,mutation enrichment score
1,B10,-6

# Target: MAP1LC3B_ATG8__Q9GZQ8_2_119
# Test: as above
# Settings: number of wild-type / mutant comparisons summed (bounds the score): 6; paper call: diminished; wild-type window: …
row,Binder,mutation enrichment score
1,B10,-6

# Target: GABARAPL1_ATG8__Q9H0R8_2_115
# Test: as above
# Settings: number of wild-type / mutant comparisons summed (bounds the score): 6; paper call: enhanced; wild-type window: …
row,Binder,mutation enrichment score
1,B11,6
2,B12,6
3,B13,6

# Target: GABARAPL2_ATG8__P60520_2_115
# Sequence (chain, as listed by the source): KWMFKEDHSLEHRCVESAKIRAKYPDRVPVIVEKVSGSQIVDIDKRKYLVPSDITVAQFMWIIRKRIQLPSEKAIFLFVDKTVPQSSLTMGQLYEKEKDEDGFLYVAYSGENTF
# Test: as above
# Settings: number of wild-type / mutant comparisons summed (bounds the score): 6; paper call: enhanced; wild-type window: …
row,Binder,mutation enrichment score
1,B11,6
2,B12,6

# Target: GABARAP_ATG8__O95166_2_115
# Sequence (chain, as listed by the source): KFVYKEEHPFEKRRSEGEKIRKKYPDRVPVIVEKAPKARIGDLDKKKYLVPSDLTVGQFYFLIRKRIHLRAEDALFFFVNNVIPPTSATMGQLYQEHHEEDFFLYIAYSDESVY
# Test: as above
# Settings: number of wild-type / mutant comparisons summed (bounds the score): 6; paper call: no_effect; wild-type window: …
row,Binder,mutation enrichment score
1,B11,3
2,B12,3

# Target: MAP1LC3A_ATG8__Q9H492_2_121
# Test: as above
# Settings: number of wild-type / mutant comparisons summed (bounds the score): 6; paper call: enhanced; wild-type window: …
row,Binder,mutation enrichment score
1,B11,6
2,B13,6

# Target: MAP1LC3B_ATG8__Q9GZQ8_2_119
# Test: as above
# Settings: number of wild-type / mutant comparisons summed (bounds the score): 6; paper call: no_effect; wild-type window: …
row,Binder,mutation enrichment score
1,B11,5
2,B17,0.79
3,B20,2.9

# Same assay, conditions: number of wild-type / mutant comparisons summed (bounds the score): 6; paper call: enhanced; wild-type window: …
row,Binder,mutation enrichment score
1,B13,6

# Target: GABARAPL1_ATG8__Q9H0R8_2_115
# Test: as above
# Settings: number of wild-type / mutant comparisons summed (bounds the score): 6; paper call: no_effect; wild-type window: …
row,Binder,mutation enrichment score
1,B14,5
2,B15,2.4
3,B16,-1.6
4,B17,0.48
5,B18,-3
6,B19,-3
7,B20,-0.18

# Target: GABARAPL2_ATG8__P60520_2_115
# Test: as above
# Settings: number of wild-type / mutant comparisons summed (bounds the score): 6; paper call: no_effect; wild-type window: …
row,Binder,mutation enrichment score
1,B15,-1
2,B16,-2
3,B18,-4
4,B19,-2.4
5,B20,0.016

# Target: MAP1LC3A_ATG8__Q9H492_2_121
# Test: as above
# Settings: number of wild-type / mutant comparisons summed (bounds the score): 6; paper call: no_effect; wild-type window: …
row,Binder,mutation enrichment score
1,B17,1.2
2,B20,1.1
